# Laboratory results reported in the supplement of paper PMC8728848.
# Some of the results follow.
# How the values were obtained:
# Test in all cases: glycan array binding signal (z-score within array); higher = stronger binding
# Settings in all cases: glycan notation: IUPAC condensed, linker removed
# Gal(b1-3)Gal(b1-4)GlcNAc = target: Gal(b1-3)Gal(b1-4)GlcNAc
# In short: (§1)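 Columns mapping to the same glycan were averaged after glycan names were converted to IUPAC-condensed notation. The data come from 3228 arrays in the Consortium for Functional Glycomics database, limited to those with an available protein sequence. Binding is reported as a within-array Z-score averaged across arrays of one protein sequence and across linkers.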
# [1] = target: Gal(b1-3)Gal(b1-4)GlcNAc(b1-2)Man(a1-3)[Gal(b1-3)Gal(b1-4)GlcNAc(b1-2)Man(a1-6)]Man(b1-4)GlcNAc(b1-4)GlcNAc
# In short: as §1
# Gal(b1-3)GalNAc = target: Gal(b1-3)GalNAc
# In short: as §1
# [2] = target: Gal(b1-3)GalNAc(a1-3)[Fuc(a1-2)]Gal(b1-4)Glc
# In short: as §1
# [3] = target: Gal(b1-3)GalNAc(a1-3)[Fuc(a1-2)]Gal(b1-4)GlcNAc
# In short: as §1
# [4] = target: Gal(b1-3)GalNAc(b1-3)Gal(a1-4)Gal(b1-4)Glc
# In short: as §1
# [5] = target: Gal(b1-3)GalNAc(b1-4)Gal(b1-4)Glc
# In short: as §1
# [6] = target: Gal(b1-3)GalNAc(b1-4)[Neu5Ac(a2-3)]Gal(b1-4)Glc
# In short: as §1
# Gal(b1-3)GlcNAc = target: Gal(b1-3)GlcNAc
# In short: as §1
# [7] = target: Gal(b1-3)GlcNAc(b1-2)Man(a1-3)[Gal(b1-3)GlcNAc(b1-2)Man(a1-6)]Man(b1-4)GlcNAc(b1-4)GlcNAc
# In short: as §1
# [8] = target: Gal(b1-3)GlcNAc(b1-2)Man(a1-3)[Gal(b1-3)GlcNAc(b1-2)Man(a1-6)]Man(b1-4)GlcNAc(b1-4)[Fuc(a1-6)]GlcNAc
# In short: as §1
# [9] = target: Gal(b1-3)GlcNAc(b1-3)Gal(b1-3)GlcNAc
# In short: as §1
# [10] = target: Gal(b1-3)GlcNAc(b1-3)Gal(b1-4)Glc
# In short: as §1
# [11] = target: Gal(b1-3)GlcNAc(b1-3)Gal(b1-4)GlcNAc
# In short: as §1
# [12] = target: Gal(b1-3)[Fuc(a1-4)]GlcNAc
# In short: as §1
# [13] = target: Gal(b1-3)[Fuc(a1-4)]GlcNAc(b1-2)Man(a1-3)[Gal(b1-3)[Fuc(a1-4)]GlcNAc(b1-2)Man(a1-6)]Man(b1-4)GlcNAc(b1-4)GlcNAc
# In short: as §1
# [14] = target: Gal(b1-3)[Fuc(a1-4)]GlcNAc(b1-2)Man(a1-3)[Gal(b1-3)[Fuc(a1-4)]GlcNAc(b1-2)Man(a1-6)]Man(b1-4)GlcNAc(b1-4)[Fuc(a1-6)]GlcNAc
# In short: as §1
# [15] = target: Gal(b1-3)[Fuc(a1-4)]GlcNAc(b1-3)Gal(b1-3)[Fuc(a1-4)]GlcNAc
# In short: as §1
# [16] = target: Gal(b1-3)[Fuc(a1-4)]GlcNAc(b1-3)Gal(b1-4)GlcNAc
# In short: as §1
# [17] = target: Gal(b1-3)[Fuc(a1-4)]GlcNAc(b1-3)Gal(b1-4)[Fuc(a1-3)]GlcNAc
# In short: as §1
# [18] = target: Gal(b1-3)[GlcNAc(b1-6)]GalNAc
# In short: as §1
# [19] = target: Gal(b1-3)[Neu5Ac(a2-6)]GalNAc
# In short: as §1
# [20] = target: Gal(b1-3)[Neu5Ac(a2-6)]GlcNAc(b1-6)Gal(b1-4)Glc
# In short: as §1
# [21] = target: Gal(b1-3)[Neu5Ac(b2-6)]GalNAc
# In short: as §1
# [22] = target: Gal(b1-4)GalNAc(a1-3)[Fuc(a1-2)]Gal(b1-4)GlcNAc
# In short: as §1
# [23] = target: Gal(b1-4)GalNAc(b1-3)[Fuc(a1-2)]Gal(b1-4)GlcNAc
# In short: as §1
# Gal(b1-4)Glc = target: Gal(b1-4)Glc
# In short: as §1
# Gal(b1-4)Glc6S = target: Gal(b1-4)Glc6S
# In short: as §1
# Gal(b1-4)GlcNAc = target: Gal(b1-4)GlcNAc
# In short: as §1
# [24] = target: Gal(b1-4)GlcNAc(a1-6)Gal(b1-4)GlcNAc
# In short: as §1
# [25] = target: Gal(b1-4)GlcNAc(b1-2)Man(a1-3)Man(b1-4)GlcNAc(b1-4)GlcNAc
# In short: as §1
# [26] = target: Gal(b1-4)GlcNAc(b1-2)Man(a1-3)[Gal(b1-4)GlcNAc(b1-2)Man(a1-6)]Man(b1-4)GlcNAc(b1-4)GlcNAc
# In short: as §1
# [27] = target: Gal(b1-4)GlcNAc(b1-2)Man(a1-3)[Gal(b1-4)GlcNAc(b1-2)Man(a1-6)]Man(b1-4)GlcNAc(b1-4)[Fuc(a1-6)]GlcNAc
# In short: as §1
# [28] = target: Gal(b1-4)GlcNAc(b1-2)Man(a1-3)[Man(a1-6)]Man(b1-4)GlcNAc(b1-4)GlcNAc
# In short: as §1
# [29] = target: Gal(b1-4)GlcNAc(b1-2)Man(a1-6)Man(b1-4)GlcNAc(b1-4)GlcNAc
# In short: as §1
# [30] = target: Gal(b1-4)GlcNAc(b1-2)Man(a1-6)[Man(a1-3)]Man(b1-4)GlcNAc(b1-4)GlcNAc
# In short: as §1
# [31] = target: Gal(b1-4)GlcNAc(b1-2)[Gal(b1-4)GlcNAc(b1-4)]Man(a1-3)[Gal(b1-4)GlcNAc(b1-2)Man(a1-6)]Man(b1-4)GlcNAc(b1-4)GlcNAc
# In short: as §1
# [32] = target: Gal(b1-4)GlcNAc(b1-3)Gal(b1-3)GlcNAc
# In short: as §1
# [33] = target: Gal(b1-4)GlcNAc(b1-3)Gal(b1-4)Glc
# In short: as §1
# [34] = target: Gal(b1-4)GlcNAc(b1-3)Gal(b1-4)GlcNAc
# In short: as §1
# [35] = target: Gal(b1-4)GlcNAc(b1-3)Gal(b1-4)GlcNAc(b1-3)Gal(b1-4)GlcNAc
# In short: as §1
# [36] = target: Gal(b1-4)GlcNAc(b1-3)Gal(b1-4)[Fuc(a1-3)]GlcNAc(b1-3)Gal(b1-4)[Fuc(a1-3)]GlcNAc
# In short: as §1
# [37] = target: Gal(b1-4)GlcNAc(b1-3)GalNAc
# In short: as §1
# [38] = target: Gal(b1-4)GlcNAc(b1-3)[Gal(b1-4)GlcNAc(b1-6)]Gal(b1-4)GlcNAc
# In short: as §1
# [39] = target: Gal(b1-4)GlcNAc(b1-3)[GlcNAc(b1-6)]Gal(b1-4)GlcNAc
# In short: as §1
binder,measurement,setting,value
"Neuropilin-1 (Homo sapiens), O14786 (protein) FKCMEALGMESGEIHSDQITASSQYSTNWSAERSRLNYPENGWTPGEDSYREWIQVDLGLLRFVTAVGTQGAISKETKKKYYVKTYKIDVSSNGEDWITIKEGNKPVLFQGNTNPTDVVVAVFPKPLITRFVRIKPATWETGISMRFEVYGCKITDYPCSGMLGMVSGLISDSQITSSNQGDRNWMPENIRLVTSRSGWALPPAPHSYINEWLQIDLGEEKIVRGIIIQGGKHRENKVFMRKFKIGYSNNGSDWKMIMDDSKRKAKSFEGNNNYDTPELRTFPALSTRFIRIYPERATHGGLGLRMELLGCEVE",glycan array binding signal (z-score),Gal(b1-3)Gal(b1-4)GlcNAc,-0.22
same,glycan array binding signal (z-score),[1],6.05
same,glycan array binding signal (z-score),Gal(b1-3)GalNAc,-0.146
same,glycan array binding signal (z-score),[2],-0.303
same,glycan array binding signal (z-score),[3],-0.28
same,glycan array binding signal (z-score),[4],-0.275
same,glycan array binding signal (z-score),[5],-0.287
same,glycan array binding signal (z-score),[6],-0.3
same,glycan array binding signal (z-score),Gal(b1-3)GlcNAc,-0.195
same,glycan array binding signal (z-score),[7],-0.27
same,glycan array binding signal (z-score),[8],-0.201
same,glycan array binding signal (z-score),[9],-0.294
same,glycan array binding signal (z-score),[10],-0.295
same,glycan array binding signal (z-score),[11],-0.248
same,glycan array binding signal (z-score),[12],-0.122
same,glycan array binding signal (z-score),[13],0.864
same,glycan array binding signal (z-score),[14],-0.016
same,glycan array binding signal (z-score),[15],-0.087
same,glycan array binding signal (z-score),[16],-0.297
same,glycan array binding signal (z-score),[17],-0.27
same,glycan array binding signal (z-score),[18],-0.251
same,glycan array binding signal (z-score),[19],-0.23
same,glycan array binding signal (z-score),[20],-0.277
same,glycan array binding signal (z-score),[21],-0.089
same,glycan array binding signal (z-score),[22],-0.182
same,glycan array binding signal (z-score),[23],-0.281
same,glycan array binding signal (z-score),Gal(b1-4)Glc,-0.292
same,glycan array binding signal (z-score),Gal(b1-4)Glc6S,-0.246
same,glycan array binding signal (z-score),Gal(b1-4)GlcNAc,-0.285
same,glycan array binding signal (z-score),[24],-0.271
same,glycan array binding signal (z-score),[25],-0.278
same,glycan array binding signal (z-score),[26],-0.291
same,glycan array binding signal (z-score),[27],-0.172
same,glycan array binding signal (z-score),[28],-0.228
same,glycan array binding signal (z-score),[29],-0.183
same,glycan array binding signal (z-score),[30],-0.248
same,glycan array binding signal (z-score),[31],-0.256
same,glycan array binding signal (z-score),[32],-0.313
same,glycan array binding signal (z-score),[33],-0.234
same,glycan array binding signal (z-score),[34],-0.228
same,glycan array binding signal (z-score),[35],-0.212
same,glycan array binding signal (z-score),[36],-0.097
same,glycan array binding signal (z-score),[37],-0.26
same,glycan array binding signal (z-score),[38],-0.239
same,glycan array binding signal (z-score),[39],-0.247
